# Several values for one entry are separate records, joined by “and”; a condition that tells them apart may be missing. Identical values can stand only once. This list was built around the results that the source calls inconclusive (neither active nor inactive); the mix of calls is not that of the screen. For some of these results: Potencies beside an inconclusive call are fits to weak or partial responses and may not hold up. Some compounds were tested as several samples or in several runs, with calls that do not always agree. Activity calls are given as the source filed them. Unless noted, calls come from the whole dose curve; as a rule, active = well fitted curve in the direction sought with a large enough effect in the repeat runs; inconclusive = weak or mixed curves; inactive = no such curve, though single readings can be large; an effect the other way counts as inactive or inconclusive.
# Key:
# [1] = qHTS assay for identifying genotoxic compounds that show differential cytotoxicity against isogenic chicken DT40 cell lines with known DNA damage response pathways - wild type cell line (AID 743012); conditions: DT40 wild type chicken cells viability, CellTiter-Glo, 40 h; activity change, negative = cytotoxicity: at 68.4 µM (top of the series) unless noted; note: % is set by controls: 0 for no effect and ±100 for the full control effect; nearly all actives have a fitted effect of over 60% in size
# Method in brief: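 Luminescent ATP viability signal (CellTiter-Glo, 30 min RT) recorded after wild type DT40 cells were incubated with compounds for 40 h at 37 C/5% CO2.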
# [2] = target: Androgen receptor (Homo sapiens) (UniProt P10275); test: qHTS assay to identify small molecule agonists of the androgen receptor (AR) signaling pathway (AID 743036; active = well fitted activation curve with a large enough effect in the signal ratio in the repeat runs, with a control signal flat, not every such curve was filed as active; inconclusive = weak or mixed curves, or effect the other way; inactive = no such curve, though single readings can be large or run the other way; the % refers to the signal ratio; note: potency is the fitted concentration of half-maximal effect); conditions: HEK293 AR-UAS-bla GripTite, beta-lactamase FRET ratio, 16 h; activation: at 62.4 µM (top of the series) unless noted
# UniProt P10275, sequence (P10275 whole entry, looked up): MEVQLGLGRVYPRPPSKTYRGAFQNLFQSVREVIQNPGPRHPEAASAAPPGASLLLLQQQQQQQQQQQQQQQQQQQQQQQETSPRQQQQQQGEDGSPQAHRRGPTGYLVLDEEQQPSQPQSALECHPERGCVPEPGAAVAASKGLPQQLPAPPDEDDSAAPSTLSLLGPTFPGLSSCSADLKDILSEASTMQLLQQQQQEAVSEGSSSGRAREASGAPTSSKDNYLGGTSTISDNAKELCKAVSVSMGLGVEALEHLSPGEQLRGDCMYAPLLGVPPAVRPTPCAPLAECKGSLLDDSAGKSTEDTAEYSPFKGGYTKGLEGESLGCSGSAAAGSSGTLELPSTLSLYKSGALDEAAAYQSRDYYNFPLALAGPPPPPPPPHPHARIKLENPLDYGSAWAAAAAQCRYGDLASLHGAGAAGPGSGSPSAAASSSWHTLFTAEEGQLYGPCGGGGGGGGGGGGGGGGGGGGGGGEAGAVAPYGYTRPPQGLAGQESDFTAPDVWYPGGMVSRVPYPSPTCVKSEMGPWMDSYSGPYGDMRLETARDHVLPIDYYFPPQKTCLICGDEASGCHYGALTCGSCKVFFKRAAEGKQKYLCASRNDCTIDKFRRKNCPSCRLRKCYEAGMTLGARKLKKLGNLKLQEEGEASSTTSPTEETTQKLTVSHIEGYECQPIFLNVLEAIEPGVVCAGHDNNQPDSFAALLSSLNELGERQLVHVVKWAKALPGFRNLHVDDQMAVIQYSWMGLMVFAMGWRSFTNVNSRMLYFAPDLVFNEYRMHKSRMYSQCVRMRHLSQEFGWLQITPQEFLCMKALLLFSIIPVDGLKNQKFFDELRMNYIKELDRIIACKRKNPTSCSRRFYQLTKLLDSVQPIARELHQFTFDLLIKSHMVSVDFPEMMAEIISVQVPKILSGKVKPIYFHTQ
# Method in brief: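 Reporter line: GeneBLAzer AR-UAS-bla-GripTite (HEK293). Steps: plate cells, 4 h rest, add compounds, 16 h at 37C, add LiveBLAzer B/G substrate, 2 h at RT, read fluorescence.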
# [3] = target: Estrogen receptor (Homo sapiens) (UniProt P03372); test: qHTS assay to identify small molecule agonists of the estrogen receptor alpha (ER-alpha) signaling pathway using the BG1 cell line (AID 743079); conditions: BG1Luc4E2 cells, ERE-luciferase agonist, 22 h; activation: at 70.3 µM (top of the series) unless noted; note: potency is the fitted concentration of half-maximal effect; nearly all actives have a fitted effect of over 20% in size
# UniProt P03372, sequence (P03372 whole entry, looked up): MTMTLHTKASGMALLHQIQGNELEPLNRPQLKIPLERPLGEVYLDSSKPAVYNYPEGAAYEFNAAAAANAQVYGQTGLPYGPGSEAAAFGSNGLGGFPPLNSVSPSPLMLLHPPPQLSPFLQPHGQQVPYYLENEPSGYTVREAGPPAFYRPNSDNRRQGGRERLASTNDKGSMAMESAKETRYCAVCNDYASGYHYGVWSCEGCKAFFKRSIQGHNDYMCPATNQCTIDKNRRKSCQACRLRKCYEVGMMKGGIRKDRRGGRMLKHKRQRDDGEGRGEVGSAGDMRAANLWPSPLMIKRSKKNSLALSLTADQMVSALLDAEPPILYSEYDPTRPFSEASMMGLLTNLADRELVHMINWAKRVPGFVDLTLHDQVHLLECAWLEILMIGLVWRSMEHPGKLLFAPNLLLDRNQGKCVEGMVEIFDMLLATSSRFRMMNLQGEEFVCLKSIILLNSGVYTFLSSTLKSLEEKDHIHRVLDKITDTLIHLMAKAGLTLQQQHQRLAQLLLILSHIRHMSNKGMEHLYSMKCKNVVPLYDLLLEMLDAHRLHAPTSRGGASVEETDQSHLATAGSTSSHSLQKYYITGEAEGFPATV
# [4] = qHTS assay to identify small molecule antagonists of the estrogen receptor alpha (ER-alpha) signaling pathway using the BG1 cell line - cell viability counter screen (AID 743081); conditions: BG1Luc4E2 viability, CellTiter-Fluor, 22 h; activity change, negative = cytotoxicity: at 70.3 µM (top of the series) unless noted;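 note: compound given together with 17beta-estradiol as the ER stimulus; potency is the fitted concentration of half-maximal effect; nearly all actives have a fitted effect of over 45% in size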
# [5] = target: Peroxisome proliferator-activated receptor gamma (Homo sapiens) (UniProt P37231); test: qHTS assay to identify small molecule agonists of the peroxisome proliferator-activated receptor gamma (PPARg) signaling pathway (AID 743094; active = well fitted activation curve with a large enough effect in the signal ratio in the repeat runs, not every such curve was filed as active; inconclusive = weak or mixed curves, or effect the other way; inactive = no such curve, though single readings can be large or run the other way; the % refers to the signal ratio; note: potency is the fitted concentration of half-maximal effect; for activation: % is set by controls: 0 for no effect and ±100 for the full control effect); conditions: HEK293H PPARg-UAS-bla, beta-lactamase FRET ratio, 17 h; activation: at 57 µM (top of the series) unless noted
# UniProt P37231, sequence (P37231 whole entry, looked up): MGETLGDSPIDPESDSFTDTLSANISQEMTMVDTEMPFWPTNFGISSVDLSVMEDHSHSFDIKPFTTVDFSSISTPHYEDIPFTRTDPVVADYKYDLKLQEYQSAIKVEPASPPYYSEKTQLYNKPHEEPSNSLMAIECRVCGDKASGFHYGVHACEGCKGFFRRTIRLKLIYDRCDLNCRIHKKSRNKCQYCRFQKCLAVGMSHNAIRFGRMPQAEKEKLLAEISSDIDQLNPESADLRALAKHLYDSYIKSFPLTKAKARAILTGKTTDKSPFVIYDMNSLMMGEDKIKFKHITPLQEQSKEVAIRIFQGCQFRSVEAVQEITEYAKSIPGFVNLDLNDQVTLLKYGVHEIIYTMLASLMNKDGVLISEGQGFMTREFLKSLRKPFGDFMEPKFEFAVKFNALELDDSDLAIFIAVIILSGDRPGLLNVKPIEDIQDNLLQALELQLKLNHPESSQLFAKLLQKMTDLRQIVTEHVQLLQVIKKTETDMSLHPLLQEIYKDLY
# Method in brief: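 Reporter activation was scored by fluorescence of cleaved LiveBLAzer B/G substrate (1 h, room temperature) in PPARg-bla HEK293H cells previously treated 17 h at 37C with DMSO-dissolved compounds.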
# [6] = qHTS assay to identify small molecule antagonists of the androgen receptor (AR) signaling pathway - cell viability counter screen (AID 743033; note: potency is the fitted concentration of half-maximal effect; nearly all actives have a fitted effect of over 45% in size); conditions: AR-bla HEK293 viability, CellTiter-Glo luminescence, 16 h; activity change, negative = cytotoxicity: at 58.5 µM (top of the series) unless noted
# [7] = qHTS assay for identifying genotoxic compounds that show differential cytotoxicity against isogenic chicken DT40 cell lines with known DNA damage response pathways - Rev3 mutant cell line (AID 743014); conditions: chicken DT40 Rev3-/- viability, CellTiter-Glo, 40 h; activity, negative = cytotoxicity: at 68.4 µM (top of the series) unless noted; note: potency is the fitted concentration of half-maximal effect; nearly all actives have a fitted effect of over 55% in size
# [8] = qHTS assay for identifying genotoxic compounds that show differential cytotoxicity against isogenic chicken DT40 cell lines with known DNA damage response pathways - Rad54/Ku70 mutant cell line (AID 743015); conditions: DT40 Rad54/Ku70 mutant viability, CellTiter-Glo, 40 h; activity change, negative = cytotoxicity: at 66.8 µM (top of the series) unless noted; note: potency is the fitted concentration of half-maximal effect; nearly all actives have a fitted effect of over 60% in size
# [9] = qHTS assay to identify small molecule antagonists of the androgen receptor (AR) signaling pathway using the MDA cell line - cell viability counter screen (AID 743041; note: % is set by controls: 0 for no effect and ±100 for the full control effect; nearly all actives have a fitted effect of over 45% in size); conditions: MDA-kb2 viability, CellTiter-Fluor, 16 h, cells co-treated with R1881 androgen agonist; viability change, negative = cytotoxic: at 70.3 µM (top of the series)
# Method in brief: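 Using the breast carcinoma line MDA-kb2 AR-luc, test chemicals were co-incubated with R1881 for 16 h; CellTiter-Fluor reagent, added at 15.5 h, provided a fluorescence measure of live cells.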
# [10] = qHTS assay to identify small molecule antagonists of the thyroid receptor (TR) signaling pathway - cell viability counter screen (AID 743064); conditions: GH3.TRE-Luc viability, CellTiter-Fluor, 24 h; activity change, negative = cytotoxic: at 70.3 µM (top of the series) unless noted; note: nearly all actives have a fitted effect of over 50% in size; note: potency is the fitted concentration of half-maximal effect; for activity change, negative = cytotoxic: % is set by controls: 0 for no effect and ±100 for the full control effect
# Method in brief: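 Plate GH3.TRE-Luc cells; incubate 4 h at 37 °C; add compound, then T3 to 1 nM final; incubate 23.5 h; add CellTiter-Fluor; incubate 30 min at 37 °C, 5% CO2; read fluorescence.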
# [11] = qHTS assay to identify small molecule antagonists of the estrogen receptor alpha (ER-alpha) signaling pathway - cell viability counter screen (AID 743074; calls by dose curve; note: nearly all actives have a fitted effect of over 45% in size; note: potency is the fitted concentration of half-maximal effect; for activity, negative = cytotoxicity: % is set by controls: 0 for no effect and ±100 for the full control effect)
# [12] = target: Estrogen receptor (Homo sapiens) (UniProt P03372); test: qHTS assay to identify small molecule antagonists of the estrogen receptor alpha (ER-alpha) signaling pathway (AID 743069; active = well fitted curve in the direction sought with a large enough effect in the signal ratio in the repeat runs, not every such curve was filed as active; inconclusive = weak or mixed curves, or effect the other way; inactive = no such curve, though single readings can be large or run the other way; the % refers to the signal ratio; note: % is set by controls: 0 for no effect and ±100 for the full control effect); conditions: HEK293 ER-alpha-UAS-bla, beta-lactamase ratio, antagonist mode; activity, negative = inhibition: at 69.4 µM (top of the series) unless noted
# Method in brief: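 Fluorescence intensity from a beta-lactamase FRET substrate served as the read-out. Cells: HEK293 with stably integrated ER-alpha-UAS-bla reporter. Agonist 17beta-estradiol was co-added with compounds; incubation 18 hr at 37C, substrate 2 hr at room temperature.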
# [13] = target: Aryl hydrocarbon receptor (Homo sapiens) (UniProt P35869); test: qHTS assay to identify small molecule that activate the aryl hydrocarbon receptor (AhR) signaling pathway (AID 743085); note: nearly all actives have a fitted effect of over 15% in size; note: potency is the fitted concentration of half-maximal effect
# UniProt P35869, sequence (P35869 whole entry, looked up): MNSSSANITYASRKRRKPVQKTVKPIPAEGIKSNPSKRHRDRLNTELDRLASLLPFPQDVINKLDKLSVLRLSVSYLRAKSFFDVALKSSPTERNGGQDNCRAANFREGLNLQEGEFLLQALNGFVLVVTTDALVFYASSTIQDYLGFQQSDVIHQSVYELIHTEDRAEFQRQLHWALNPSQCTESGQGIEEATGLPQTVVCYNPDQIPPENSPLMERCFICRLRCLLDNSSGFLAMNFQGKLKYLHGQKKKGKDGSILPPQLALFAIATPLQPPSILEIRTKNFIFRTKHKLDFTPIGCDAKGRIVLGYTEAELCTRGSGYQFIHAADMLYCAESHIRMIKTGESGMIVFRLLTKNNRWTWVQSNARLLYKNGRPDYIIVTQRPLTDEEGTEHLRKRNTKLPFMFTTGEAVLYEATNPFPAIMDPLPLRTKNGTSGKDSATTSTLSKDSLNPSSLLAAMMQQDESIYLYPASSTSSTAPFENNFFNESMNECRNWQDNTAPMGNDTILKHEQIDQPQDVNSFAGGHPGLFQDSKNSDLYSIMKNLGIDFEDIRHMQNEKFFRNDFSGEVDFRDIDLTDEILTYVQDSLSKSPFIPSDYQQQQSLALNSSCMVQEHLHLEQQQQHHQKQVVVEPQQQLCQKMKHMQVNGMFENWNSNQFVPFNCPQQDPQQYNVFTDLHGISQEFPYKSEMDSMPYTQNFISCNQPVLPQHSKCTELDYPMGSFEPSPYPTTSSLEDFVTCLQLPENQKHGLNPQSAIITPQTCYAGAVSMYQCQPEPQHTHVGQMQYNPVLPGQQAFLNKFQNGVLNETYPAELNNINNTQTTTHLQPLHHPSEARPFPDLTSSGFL
# Method in brief: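 Steps: seed HepG2-AhR-luc cells; allow 5 h at 37C; pin-transfer test compound or vehicle; incubate 24 h at 37C; add viability dye (30 min, 37C) and read fluorescence; add luciferase substrate (30 min, RT) and read luminescence.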
# [14] = target: Androgen receptor (Homo sapiens) (UniProt P10275); test: qHTS assay to identify small molecule antagonists of the androgen receptor (AR) signaling pathway (AID 743035; active = well fitted inhibition curve with a large enough effect in the signal ratio in the repeat runs, not every such curve was filed as active; inconclusive = weak or mixed curves, or effect the other way; inactive = no such curve, though single readings can be large or run the other way; the % refers to the signal ratio; note: potency is the fitted concentration of half-maximal effect); conditions: HEK293 AR-UAS-bla, R1881-stimulated, beta-lactamase FRET, 16 h; activity change, negative = inhibition: at 58.5 µM (top of the series) unless noted
# Method in brief: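 Quantitative HTS of the Tox21 10K library used HEK293 AR-UAS-bla cells stimulated with R1881 alongside compound for 16 h at 37C, followed by beta-lactamase FRET detection (LiveBLAzer B/G, 2 h, RT).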
# [15] = target: Androgen receptor (Homo sapiens) (UniProt P10275); test: qHTS assay to identify small molecule antagonists of the androgen receptor (AR) signaling pathway using the MDA cell line (AID 743042; note: potency is the fitted concentration of half-maximal effect; nearly all actives have a fitted effect of over 55% in size)
# Method in brief: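 Antagonist mode: compounds plus R1881 agonist added to MDA-kb2 AR-luc cells, incubated 16 h at 37C. Luciferase reporter luminescence quantified, with multiplexed CellTiter-Fluor readout for cell viability.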
# [16] = system: thyroid hormone receptor (rat, GH3 cells); test: qHTS assay to identify small molecule agonists of the thyroid receptor (TR) signaling pathway (AID 743066; calls by dose curve; note: potency is the fitted concentration of half-maximal effect); conditions: GH3.TRE-Luc cells, TR agonist luciferase, 24 h; activation: at 83.9 µM (top of the series) unless noted
# [17] = qHTS assay to identify small molecule antagonists of the estrogen receptor alpha (ER-alpha) signaling pathway using the BG1 cell line (AID 743080; calls by dose curve;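 note: BG1 cells stimulated with 17beta-estradiol alongside compound; potency is the fitted concentration of half-maximal effect; nearly all actives have a fitted effect of over 25% in size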); conditions: BG1Luc4E2 ERE-luciferase antagonist mode, luminescence; activity change, negative = inhibition: at 70.3 µM (top of the series) unless noted
# Method in brief: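 Quantitative HTS on the Tox21 10K library: BG1 cells with endogenous ER-alpha and ERE-luciferase reporter, 17beta-estradiol stimulation, 21.5 h compound exposure, luminescence endpoint with parallel fluorescence cytotoxicity counter-read.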
# [18] = qHTS assay to identify small molecule that activate the aryl hydrocarbon receptor (AhR) signaling pathway - cell viability counter screen (AID 743086)
# Method in brief: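 Cytotoxicity counter screen: CellTiter-Fluor signal (30 min, 37 C) in 4000 HepG2 cells/well carrying the DRE-luciferase reporter, following 24 h compound exposure at 37 C.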
# Tags give direction and shape of the fitted curve or compound fluorescence and quenching.
smiles,measurement,setting,value
Nc1c(CC(=O)O)cccc1C(=O)c1ccccc1,Potency,[1],inactive
same,Potency,[2],"inconclusive: 26.8 µM [rising, partial curve, poor fit] and inconclusive: 16.9 µM [rising, partial curve, poor fit]"
same,Potency,[3],active: 10.6 µM
same,Potency,[4],"inconclusive: 33.5 µM [cytotoxic, single point]"
same,Potency,[5],"inconclusive: 21.3 µM [activator, partial curve, poor fit]"
same,activation,[5],inconclusive: 11.4%
CCCCCCCCCCCCCC(=O)OCC(COP(=O)([O-])OCC[N+](C)(C)C)OC(=O)CCCCCCCCCCCCC (stereo not drawn),Potency,[4],"inconclusive: 0.168 µM [rising, full curve, poor fit]"
FCOC(C(F)(F)F)C(F)(F)F,Potency,[1],inactive
same,Potency,[6],"inconclusive: 0.0034 µM [cytotoxic, full curve, poor fit]"
Cc1cccc(C)c1NC(=O)C1CCCCN1C (stereo not drawn),Potency,[4],"inconclusive: 8.41 µM [rising, partial curve]"
CC(=O)Nc1ccc(OC(=O)c2ccccc2O)cc1,Potency,[1],inactive
same,Potency,[2],inconclusive: 23.9 µM
COc1ccc(C[C@@H](C)NC[C@H](O)c2ccc(O)c(NC=O)c2)cc1,Potency,[7],inconclusive: 33.5 µM [cytotoxic]
same,Potency,[8],"inconclusive: 33.5 µM [cytotoxic, single point]"
same,Potency,[9],inactive
same,Potency,[10],inactive
same,Potency,[11],"inconclusive: 15.1 µM [cytotoxic, partial curve, poor fit]"
same,Potency,[5],inactive
CC(C)[C@H](NC(=O)[C@H](CC(=O)O)NC(=O)[C@H](CCCCN)NC(=O)[C@@H](N)CCCN=C(N)N)C(=O)N[C@@H](Cc1ccc(O)cc1)C(=O)O,Potency,[7],"inconclusive: 26.6 µM [rising, partial curve, poor fit]"
same,Potency,[12],inactive
same,Potency,[11],inactive
C=CCCCCCCCCC(=O)OC,Potency,[8],"inconclusive: 33.5 µM [cytotoxic, partial curve, poor fit]"
same,Potency,[13],inactive
COc1ccc(C2NC(=S)N3C(c4ccc(OC)c(OC)c4)NC(=S)N23)cc1OC (stereo not drawn),Potency,[14],inconclusive: 21.3 µM
same,activation,[2],inconclusive: -1.12%
same,Potency,[15],active: 0.075 µM
same,Potency,[16],"inconclusive: 0.106 µM [inhibitor, partial curve, poor fit]"
same,"activity, negative = inhibition",[12],inconclusive: -0.285%
same,Potency,[17],"inconclusive: 1.19 µM [rising, partial curve, poor fit]"
C=CC1=C(C(=O)O)N2C(=O)[C@@H](NC(=O)/C(=N/OCC(=O)O)c3csc(N)n3)[C@H]2SC1 (stereo in doubt),Potency,[7],"inconclusive: 10.1 µM [rising, partial curve, poor fit]"
O=C(OC[C@H]1O[C@](O)(COC(=O)c2cccnc2)[C@@H](OC(=O)c2cccnc2)[C@@H]1OC(=O)c1cccnc1)c1cccnc1,Potency,[2],inactive
same,Potency,[10],"inconclusive: 2.37 µM [rising, full curve, poor fit]"
same,Potency,[11],inactive
same,Potency,[18],"inconclusive: 0.531 µM [rising, full curve, poor fit]"
CCCCCCCCCCCCCCCCCC(=O)OCCO,Potency,[11],inconclusive: 10.7 µM [cytotoxic]
same,Potency,[3],active: 9.44 µM
CCN(CC)CCOC(=O)c1ccc(N)cc1Cl,Potency,[4],"inconclusive: 33.5 µM [cytotoxic, single point]"
same,Potency,[13],"inconclusive: 33.5 µM [activator, partial curve, poor fit]"
NCCC[C@H](N)C(=O)O,Potency,[10],"inconclusive: 0.668 µM [rising, single point]"
same,Potency,[11],"inconclusive: 0.0674 µM [rising, full curve, poor fit]"
same,Potency,[4],"inconclusive: 13.3 µM [cytotoxic, single point]"
CN(CCO)CC(O)Cn1cnc2c1c(=O)n(C)c(=O)n2C (stereo not drawn) (tested in a mixture with another compound),Potency,[7],"inconclusive: 13.3 µM [rising, partial curve, poor fit]"
same,Potency,[11],inactive
